The values below come from paper PMC9911399, “Two distinct binding modes provide the RNA-binding protein RbFox with extraordinary sequence specificity”.

B1: CCAGCUU (DNA:RNA)
RNA: GGGAGACCGGAAUUCAGAUUGUCCCCAGCUUUUAAAUCCCGUCGUAGCCACCA
DNA 1: CAATCTGAATTCCGGTCTCCC
DNA 2: TGGTGGCTACGACGGGATT
B2: CUCGCCA (DNA:RNA)
RNA: B1 RNA with C26U, A27C, U30C, U31A
DNA 1: CAATCTGAATTCCGGTCTCCC
DNA 2: TGGTGGCTACGACGGGATT
B3: CUAUUAA (DNA:RNA)
RNA: B1 RNA with C26U, G28U, C29U, U30A, U31A
DNA 1: CAATCTGAATTCCGGTCTCCC
DNA 2: TGGTGGCTACGACGGGATT
B4: CAAAGUU (DNA:RNA)
RNA: B1 RNA with C26A, G28A, C29G
DNA 1: CAATCTGAATTCCGGTCTCCC
DNA 2: TGGTGGCTACGACGGGATT
B5: UACUUCC (DNA:RNA)
RNA: GGGAGACCGGAAUUCAGAUUGUCCUACUUCCUUAAAUCCCGUCGUAGCCACCA
DNA 1: CAATCTGAATTCCGGTCTCCC
DNA 2: TGGTGGCTACGACGGGATT
B6: GCGGGGU (DNA:RNA)
RNA: B1 RNA with C25G, A27G, C29G, U30G
DNA 1: CAATCTGAATTCCGGTCTCCC
DNA 2: TGGTGGCTACGACGGGATT
B7: GUUGAUG (DNA:RNA)
RNA: B1 RNA with C25G, C26U, A27U, C29A, U31G
DNA 1: CAATCTGAATTCCGGTCTCCC
DNA 2: TGGTGGCTACGACGGGATT
B8: GCUUUCG (DNA:RNA)
RNA: B5 RNA with U25G, A26C, C27U, C31G
DNA 1: CAATCTGAATTCCGGTCTCCC
DNA 2: TGGTGGCTACGACGGGATT
B9: AUUUACU (DNA:RNA)
RNA: B5 RNA with U25A, A26U, C27U, U29A, C31U
DNA 1: CAATCTGAATTCCGGTCTCCC
DNA 2: TGGTGGCTACGACGGGATT

Positions count from the first letter of the chain named. The list shows a part of the results.

The test has as its target T1, RBFOX1 RRM RbFoxmut (Fox-RRM*) (Homo sapiens, UniProt Q9NWB1 109-208, R118D;E147R;N151S;E152T).
T1 sequence: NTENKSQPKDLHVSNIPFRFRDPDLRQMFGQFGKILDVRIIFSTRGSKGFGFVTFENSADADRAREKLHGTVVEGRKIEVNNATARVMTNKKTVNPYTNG
The test is described as follows: EMSA; HiTS-Eq, 1 nM pool, 10 min; buffer printed only for the single-RNA assays: 10 mM Tris pH 7.5, 150 mM NaCl, 3.4 mM EDTA, 0.001% NP-40, 30 C. The conditions noted are these: tags: His6 N-terminal (pET28a); label: 5' 32P. Summed up: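 A pool of RNA with 7 randomized nucleotides, 5′-radiolabelled and with DNA-annealed flanks, was equilibrated at 1 nM for 10 min in 50 µL with purified RbFox RRM, wild type or mutant, across increasing protein concentrations. Free RNA was separated by 8% native PAGE, excised, reverse-transcribed, barcoded by PCR and sequenced. Relative association constants were obtained from read-count changes of each RNA species versus the control reaction and normalised to the cognate motif.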
In general terms: In EMSA bound probe runs differently from free probe, usually more slowly.
For the molecule B1, the binding signal was 0.0742 KA relative to UGCAUGU.

With B2, the binding signal is 0.103 KA relative to UGCAUGU.

Consider B3, for which the binding signal is 0.0805 KA relative to UGCAUGU.

For B4, the binding signal was 0.0713 KA relative to UGCAUGU.

Consider B5, for which the binding signal is 0.0793 KA relative to UGCAUGU.

Take B6: the binding signal is 0.129 KA relative to UGCAUGU.

For B7, the binding signal is 0.225 KA relative to UGCAUGU.

Consider B8, for which the binding signal was 0.082 KA relative to UGCAUGU.

Take B9: the binding signal was 0.15 KA relative to UGCAUGU.
